Test results as given in PubChem BioAssay AID1346428 (National Center for Advancing Translational Sciences (NCATS), 2018).
Out of some 48,000 compounds screened, about 1,200 (2.5%) were called active. About 2% were inconclusive and are not listed.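 Rule for the calls: active = activation of at least 60% and not above a set upper limit (about 1 call in 100 departs from these limits); inconclusive = activation of 40% to 60%, or above that upper limit; inactive = activation under 40%.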 Some of the results follow.

Each compound was assayed against Probable G-protein coupled receptor 32 (Homo sapiens) (UniProt O75388) (assay: qHTS for Agonists of Human Resolvin D1 Receptor DRV1). Settings: CHO-K1 GPR32 beta-arrestin PathHunter luminescence, 90 min; at 76.9 µM; stronger effect = higher value; zero percent set by DMSO-only wells.
Chain of UniProt O75388 (O75388 whole entry, looked up, the tested form may be a part): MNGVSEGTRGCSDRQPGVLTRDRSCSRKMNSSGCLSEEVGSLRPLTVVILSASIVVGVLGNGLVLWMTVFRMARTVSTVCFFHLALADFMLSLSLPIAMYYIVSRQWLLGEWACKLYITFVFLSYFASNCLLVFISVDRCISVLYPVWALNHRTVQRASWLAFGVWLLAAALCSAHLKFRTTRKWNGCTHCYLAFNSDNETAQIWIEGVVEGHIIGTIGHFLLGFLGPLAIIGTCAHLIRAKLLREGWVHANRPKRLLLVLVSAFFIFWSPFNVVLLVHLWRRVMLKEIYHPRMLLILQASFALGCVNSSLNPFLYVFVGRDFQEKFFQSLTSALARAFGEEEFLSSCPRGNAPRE
Outline: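 PathHunter enzyme-fragment complementation, CHO-K1 GPR32 stable line; 2,500 cells/well, overnight attach; cpd 90 min 37 °C 5% CO2; detection reagent 1 h RT; chemiluminescence. DMSO = EC0.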

Q: Which activation does the source give for COc1ccc(NC(=O)C(NC(=O)/C=C\c2ccc3c(c2)OCO3)c2ccccc2)cc1 (stereo not given) here?
A: inactive: -17%

Q: Which activation does the source give for Cc1ncc(CO)c(CN)c1O here?
A: inactive: -9.09%

Q: How did the activation turn out when Cc1ccc(NC(=O)C2CCN(S(=O)(=O)c3cc(-c4noc(C)n4)ccc3C)CC2)c(C)c1 was run?
A: inactive: -7.5%

Q: How did the activation turn out when COc1ccc(C2CC(=O)c3cc(-c4nc(-c5cccc([N+](=O)[O-])c5)cs4)c(=O)n(-c4ccc(OC)cc4)c3C2)cc1 (stereo not given) was run?
A: inactive: 3.57%

Q: Which activation does the source give for COc1ccc(C2N3CC4(C)CN2CC(c2ccccc2)(C3)C4=O)cc1OC (stereo not given) here?
A: inactive: 9.6%

Q: With O=C(CSc1c2c(nc3cc(Cl)ccc13)CCCC2)NCc1ccccc1Cl as the compound, how does the activation read?
A: inactive: -18.1%

Q: How did the activation turn out when CCCCCCCCCCCCCCCCCCNC(=O)OCC(COP(=O)([O-])OCC[n+]1ccsc1)OC (stereo not given) was run?
A: inactive: -4.7%

Q: For CCCN(CCC)CCCNC(=O)c1cc2c(=O)[nH]c3ccccc3c2n1C, which activation is on record?
A: inactive: -7.04%

Q: With COc1cccc(-n2c(=O)c3sc4ccccc4c3n(CC(=O)Nc3ccccc3C)c2=O)c1 as the compound, how does the activation read?
A: inactive: -16.4%

Q: Which activation does the source give for CCc1ccc(Oc2c(C(F)(F)F)oc3c(CN4CCCC(C)C4)c(O)ccc3c2=O)cc1 (stereo not given) here?
A: inactive: -10%

Q: CCc1ccc(NC(=O)c2nn(-c3ccc(OC)cc3)c(=O)c3c2c2ccccc2n3C)cc1 was tested. Which activation did it give?
A: inactive: 0.198%

Q: How did the activation turn out when COc1ccc(N2CCN(c3csc4ccccc4c3=O)CC2)cc1 was run?
A: inactive: -50.2%

Q: CCCCOc1ccc(Cn2c(=O)sc3ccccc32)cc1 was tested. Which activation did it give?
A: inactive: -17.3%

Q: With Cc1c(C(=O)Nc2ccc(F)cc2F)sc2nc3n(c(=O)c12)N=C(c1ccccc1)CS3 as the compound, how does the activation read?
A: inactive: -5.74%

Q: For Cn1nccc1C(=O)NCc1ccc2c(c1)CCN2C(=O)c1ccc(Cl)cc1, which activation is on record?
A: inactive: -4.25%

Q: For CC(Sc1oc(-c2cccs2)nc1S(=O)(=O)c1ccccc1)c1ccccc1 (stereo not given), which activation is on record?
A: inactive: -19.8%

Q: With O=C1c2ccccc2-c2onc3c(NCCO)cc(NC4CCCCC4)c1c23 as the compound, how does the activation read?
A: inactive: -51.4%

Q: COc1ccc(C(CNC(=O)COc2cc(C)cc(C)c2)N2CCOCC2)cc1 (stereo not given) was tested. Which activation did it give?
A: inactive: -9.48%

Q: How did the activation turn out when CCOC(=O)c1ccccc1NC(=O)CCc1nc(-c2ccc(C)cc2)no1 was run?
A: inactive: -16.6%

Q: With CC(CNC(=O)CCS(=O)(=O)c1cc2c(cc1Cl)NC(=O)CO2)c1ccccc1 (stereo not given) as the compound, how does the activation read?
A: inactive: -12%

Q: Cc1ccc(NC(=O)CSc2nc(=O)cc(N)n2CCc2ccccc2)cc1 was tested. Which activation did it give?
A: inactive: -21.7%

Q: With CCOc1nc2cccc(C(=O)O)c2n1Cc1ccc(-c2ccccc2-c2nn[nH]n2)cc1 as the compound, how does the activation read?
A: inactive: 3.04%

Q: How did the activation turn out when CCc1ccccc1NC(=O)C1CCCN(c2cnccn2)C1 (stereo not given) was run?
A: inactive: 8.58%

Q: How did the activation turn out when C=C(C)C(=O)OCC(O)CO (stereo not given) was run?
A: inactive: -0.968%

Q: For O=C(Nc1cccc(NC(=O)c2ccccc2Cl)c1)c1cccc(Br)c1, which activation is on record?
A: inactive: -17.6%

Q: With CCOc1ccc(N2CC(C(=O)NCc3nnnn3-c3ccc(C)c(C)c3)CC2=O)cc1 (stereo not given) as the compound, how does the activation read?
A: inactive: -12.8%

Q: How did the activation turn out when CCOc1ccc(NS(=O)(=O)c2ccc3[nH]cc(C(=O)NCC4CCCO4)c(=O)c3c2)cc1 (stereo not given) was run?
A: inactive: -1.07%

Q: Which activation does the source give for COC(=O)CN1C(=O)CSc2ccc(S(=O)(=O)Nc3cccc(Cl)c3C)cc21 here?
A: inactive: 4.33%

Q: With Nc1c(-c2nc(-c3ccc(F)cc3)cs2)c2ccccn2c1C(=O)c1ccc2c(c1)OCO2 as the compound, how does the activation read?
A: inactive: 0.311%

Q: With CC(=O)c1ccc(N2CCN(C(=O)CCS(=O)(=O)c3ccc4c(c3)oc(=O)n4C)CC2)cc1 as the compound, how does the activation read?
A: inactive: -10.2%

Q: For COc1ccc(NCc2cc3ccc(OC)cc3n(CC(=O)Nc3cc(Cl)ccc3C)c2=O)cc1, which activation is on record?
A: inactive: -35.7%

Q: Which activation does the source give for Cc1cc(=O)n(CC(=O)N2CCN(c3ccc(F)cc3)CC2)c2c1c(C)nn2C here?
A: active: 71%

Q: With CC(Oc1ccccc1F)C(=O)Nc1ccc(-c2nc3ccccc3s2)cc1 (stereo not given) as the compound, how does the activation read?
A: inactive: 30.6%

Q: How did the activation turn out when CCSc1ncc(Cl)c(C(=O)Nc2sc3c(c2C(=O)NC)CCCC3)n1 was run?
A: inactive: -4.25%

Q: CC1CCc2c(sc(NC(=O)c3cc4nc(-c5ccc(Cl)cc5)cc(C(F)(F)F)n4n3)c2C#N)C1 (stereo not given) was tested. Which activation did it give?
A: inactive: -1.49%

Q: How did the activation turn out when Nc1ccc(C(=O)O)c(O)c1 was run?
A: inactive: -8.73%

Q: CCc1cccc(NC(=O)CN(C)S(=O)(=O)c2cccc3cccnc23)c1 was tested. Which activation did it give?
A: inactive: 3.82%

Q: For CCC1CCCCN1C(=O)c1sc(-n2nc(C)c(Cc3ccccc3)c2C)nc1C (stereo not given), which activation is on record?
A: inactive: -3.21%

Q: For COc1ccc(S(=O)(=O)c2cnc(SCC(=O)Nc3cc(F)ccc3C)[nH]c2=O)cc1Cl, which activation is on record?
A: inactive: -6.79%

Q: With Cc1ccc(Cl)cc1NC(=O)CN1C(=O)C(C)(C)c2cc(S(=O)(=O)N3CCCCC3)ccc21 as the compound, how does the activation read?
A: inactive: 3.65%

Q: Which activation does the source give for Cc1cccc(-c2nc3c4ccccc4nc(NCc4ccc(F)cc4)n3n2)c1 here?
A: inactive: -10.9%

Q: For CCOC(=O)c1c(S(=O)(=O)NCC(=O)NCc2ccccc2)c(C)n(C)c1C, which activation is on record?
A: inactive: -10.4%

Q: With CC(C)CCN(C(=O)Nc1ccc(Cl)c(Cl)c1)C(C)c1cccs1 (stereo not given) as the compound, how does the activation read?
A: inactive: 1.81%

Q: For COc1cccc(OC(=O)CSc2nnc(-c3ccc4c(c3)OCO4)o2)c1, which activation is on record?
A: inactive: -3.65%

Q: How did the activation turn out when COc1cc(/C=C/c2nc(C#N)c(N3CCC(C)CC3)o2)cc(OC)c1OC was run?
A: inactive: -25%

Q: For CCOc1ccccc1NC(=O)C(C)N(c1ccccc1)S(C)(=O)=O (stereo not given), which activation is on record?
A: inactive: -0.0605%

Q: CCc1ccc2c(c1)NC(c1ccc(OC)cc1)=NC(c1ccncc1)=N2 was tested. Which activation did it give?
A: inactive: -20.2%

Q: Which activation does the source give for CCOC(=O)c1ccc(OC(=O)c2cn(-c3cccc(OC)c3)c(=O)c3ccccc23)cc1 here?
A: inactive: -14.3%

Q: Which activation does the source give for Cc1ccccc1CSc1nc2cccnc2n1Cc1ccc(C(=O)NCCc2cccs2)cc1 here?
A: inactive: -22.1%

Q: For NC(N)=NCCCCN=C(N)N, which activation is on record?
A: inactive: 5.89%

Q: How did the activation turn out when Cc1ccc2oc(=O)n(CCNC(=O)Nc3ccc(C)c(F)c3)c2c1 was run?
A: inactive: -8.36%

Q: COc1ccccc1C1C=C(c2ccc(Cl)cc2)Nc2nc(-c3ccc(Cl)cc3)nn21 (stereo not given) was tested. Which activation did it give?
A: inactive: -0.778%

Q: Which activation does the source give for Cc1ccc(C)c(N2CCN(C(=O)C(C)n3c(C)c4cnn(-c5ccccc5)c(=O)c4c3C)CC2)c1 (stereo not given) here?
A: inactive: -7.22%

Q: Which activation does the source give for Cc1ccc(N2CCN(C(=O)c3noc4c3COc3ccc(C)cc3-4)CC2)c(C)c1 here?
A: inactive: -3.43%

Q: COc1ccc(NC(=O)CSc2nc(-c3ccccc3)nc3c2Cc2c(CO)cnc(C)c2O3)cc1Cl was tested. Which activation did it give?
A: inactive: 5.22%

Q: For CCCCCn1c(=N)n(CC(O)COc2cccc(C)c2)c2ccccc21 (stereo not given), which activation is on record?
A: active: 89.8%

Q: Which activation does the source give for CC(Nc1ccc(-c2nc(-c3ccccn3)no2)cc1[N+](=O)[O-])c1ccccc1 (stereo not given) here?
A: inactive: -12%

Q: With Cc1ccc(C)c(Cn2nc(C)n3c(cc4cc(C)ccc43)c2=O)c1 as the compound, how does the activation read?
A: inactive: -27.9%

Q: Which activation does the source give for COC(=O)c1ccc(OCC2c3cc(OC)c(OC)cc3CCN2C(=O)c2ccccc2F)cc1 (stereo not given) here?
A: inactive: 11.5%

Q: Which activation does the source give for Cc1ccc(CNC(=O)c2c(-c3cccc(Br)c3)noc2C)o1 here?
A: inactive: -17.7%

Q: Which activation does the source give for O=C(CSCc1cnn(-c2ccccc2)c1-n1cccc1)Nc1ccc(F)cc1F here?
A: inactive: -12.3%

Q: Cc1cccc(C(=O)Nc2cccc(OCc3cc(=O)n4c(C)csc4n3)c2)c1 was tested. Which activation did it give?
A: inactive: 16.5%

Q: For CCc1ccc(NC(=O)c2cc3c(=O)n(Cc4cccnc4)ccc3nc2C)cc1, which activation is on record?
A: inactive: -2.85%

Q: How did the activation turn out when O=C(c1ccc(F)cc1)C1CCN(CCn2c(=S)[nH]c3ccccc3c2=O)CC1 was run?
A: active: 68%

Q: For CCc1ccc(NC(=O)C(=O)NCC(c2cccnc2)N2CCOCC2)cc1 (stereo not given), which activation is on record?
A: inactive: -1.45%

Q: Which activation does the source give for COC(=O)c1ccc(Cl)c(NC(=O)C2CCN(S(=O)(=O)Cc3ccccc3)CC2)c1 here?
A: inactive: -0.369%

Q: For COc1ccc(Nc2nc(N)nc(CSc3nc4cc(OC)ccc4s3)n2)cc1, which activation is on record?
A: inactive: -5.79%

Q: For COc1ccc(NC(=O)Cc2csc(COc3cccc(C)c3)n2)c(OC)c1, which activation is on record?
A: inactive: -6.72%

Q: How did the activation turn out when OCCc1ccccc1 was run?
A: inactive: -5.64%

Q: For CC(C)c1nn2c(=O)cc(COC(=O)CNC(=O)c3ccccc3)nc2s1, which activation is on record?
A: inactive: 4.74%

Q: How did the activation turn out when COc1ccc(-c2noc(CCC(=O)NCc3ccc(OC)cc3OC)n2)cc1 was run?
A: inactive: 46.8%

Q: Which activation does the source give for COc1ccc(OCC(=O)NCCS(=O)(=O)N2CCN(c3cccc(Cl)c3)CC2)cc1 here?
A: inactive: -12%

Q: For CCn1cc(C(=O)N(C)Cc2ccccc2)c(=O)c2cc(S(=O)(=O)N3CCCCCC3)ccc21, which activation is on record?
A: inactive: -5.13%

Q: Which activation does the source give for O=C(CCn1cnc2onc(-c3ccc(F)cc3)c2c1=O)N1CCN(c2cccc(Cl)c2)CC1 here?
A: inactive: -2.4%

Q: For CCC(C(=O)NCCCN(CC)CC)n1ncn2c(cc3occc32)c1=O (stereo not given), which activation is on record?
A: inactive: -7.86%

Q: How did the activation turn out when CCOc1ccc(CNC(=O)C2Cc3cc(S(=O)(=O)N4CCCCCC4)ccc3N2C(C)=O)cc1 (stereo not given) was run?
A: inactive: -5.18%

Q: How did the activation turn out when Cc1ccc(NC(=O)Cn2c(-c3nonc3N)nc3ccccc32)cc1Cl was run?
A: inactive: -2.58%

Q: Which activation does the source give for CCOc1ccc(OCC)c(NC(=O)C2CCN(c3cnccn3)CC2)c1 here?
A: inactive: 4.22%

Q: Which activation does the source give for O=C(c1ccc(F)cc1F)N1CCC(c2noc(-c3ccc(S(=O)(=O)N4CCCC4)cc3)n2)CC1 here?
A: inactive: 1.92%

Q: With O=C(Nc1nnc(S(=O)(=O)N2CCOCC2)s1)c1ccc(F)cc1 as the compound, how does the activation read?
A: inactive: 3.48%

Q: For N#Cc1cccc(NC(=O)c2ccc3c(c2)N(Cc2cccc(Cl)c2)C(=O)c2ccccc2S3(=O)=O)c1, which activation is on record?
A: inactive: -23%

Q: How did the activation turn out when CCc1ccc(NC(=O)CN(Cc2ccccc2)S(=O)(=O)c2ccc3nc(C)sc3c2)cc1 was run?
A: inactive: -14.8%

Q: Which activation does the source give for CCc1ccc(S(=O)(=O)c2nnn3c2nc(NCc2ccccc2OC)c2cc(Cl)ccc23)cc1 here?
A: inactive: -9.96%

Q: For Cc1ccccc1-c1noc(-c2ccccc2OCC(=O)Nc2ccccc2[N+](=O)[O-])n1, which activation is on record?
A: inactive: -0.225%

Q: With COc1ccc(C2NC(=O)N(C)C3=C2C(=O)N(c2ccc(C)cc2)C3)cc1 (stereo not given) as the compound, how does the activation read?
A: inactive: -3.32%
